Experimental data from PubChem BioAssay AID1346428 (National Center for Advancing Translational Sciences (NCATS), 2018).
Among all 48,000 compounds or so, about 1,200 (2.5%) were called active. Not shown: some 2% with an inconclusive outcome.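 How the source made its calls: active means activation of at least 60% and not above a set upper limit (about 1 call in 100 departs from these limits); inconclusive means activation of 40% to 60%, or above that upper limit; inactive means activation under 40%.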 The list shows a part of the results.

Molecular target: Probable G-protein coupled receptor 32 (Homo sapiens) (UniProt O75388)
Assay: qHTS for Agonists of Human Resolvin D1 Receptor DRV1; further: 0% is about no effect
Conditions: CHO-K1 GPR32 beta-arrestin PathHunter luminescence, 90 min; at 76.9 µM; hits give high values; zero percent set by DMSO-only wells
Summary of the method: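 Luminescent readout of beta-Gal complementation quantifies ligand-induced beta-arrestin association with GPR32 in CHO-K1 cells; 90 min compound incubation at 37 °C, detection 1 h at room temperature.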

Sequence of UniProt O75388 (O75388 whole entry, looked up): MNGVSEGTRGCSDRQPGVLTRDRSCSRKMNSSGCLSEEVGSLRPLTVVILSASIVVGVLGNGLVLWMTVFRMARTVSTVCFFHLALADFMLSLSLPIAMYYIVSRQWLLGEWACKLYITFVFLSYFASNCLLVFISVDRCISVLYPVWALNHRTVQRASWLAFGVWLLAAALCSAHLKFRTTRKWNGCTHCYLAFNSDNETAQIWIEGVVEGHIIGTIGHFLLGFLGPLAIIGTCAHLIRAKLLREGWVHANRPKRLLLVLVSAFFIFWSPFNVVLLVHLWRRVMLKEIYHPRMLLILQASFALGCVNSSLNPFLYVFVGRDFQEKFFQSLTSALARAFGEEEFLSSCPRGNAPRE

activation, inactive:
O=C(c1ccc2c(c1)N(Cc1ccc(F)cc1)C(=O)c1ccccc1S2(=O)=O)N1CCCCCC1 -1.35%
Cc1ccc(N2CC(NC(=O)c3ccco3)CC2=O)cc1 (stereo not given) -1.95%
COc1cccc(-n2c(=O)c3cc(OC)c(OC)cc3n(CC(=O)Nc3ccccc3)c2=O)c1 2.95%
Cc1ccc(C)c(S(=O)(=O)c2cn(C)c3cc(F)c(F)cc3c2=O)c1 -8.46%
CCc1cccc(NC(=O)c2c(N3CCCC3=O)c3cc(C)ccc3n2C)c1 42.3%
CC(=O)Nc1ccccc1-c1nc2ccccc2n(CC(=O)Nc2ccc(C)c(Cl)c2)c1=O -9.79%
COc1ccc(CCn2c(=O)c3ccccc3n(CC(=O)Nc3cccc(C)c3)c2=O)cc1OC -8.62%
CNC(=O)CN(CCN(CCN(CC(=O)[O-])CC(=O)NC)CC(=O)[O-])CC(=O)[O-].O.[Gd+3] 11.5%
Cc1ccc(S(=O)Cc2ccc(C(=O)NC3CCCCCC3)o2)cc1 (stereo not given) -1.61%
Cc1ccc(NC(=O)CSc2nc3c(c(=O)[nH]2)CCC3)cc1Cl 39.3%
Cc1ccccc1CN1C(=O)c2ccccc2S(=O)c2ccc(C(=O)NCc3ccco3)cc21 (stereo not given) -20.7%
Cc1[nH]c2ccc(C(=O)Nc3ccc(F)cc3)cc2c1C 3.75%
CCN(C(=O)CCS(=O)(=O)c1ccc2c(c1)oc(=O)n2C)c1ccc(OC)cc1 5.89%
O=S(=O)(c1ccc(Br)cc1)c1nc(-c2cccs2)oc1SCc1ccc(F)cc1 -19%
CCn1c(COc2cccc(C)c2)nc2ccccc21 -9.03%
CCS(=O)(=O)N1CCC2(CC1)OC(=O)C(C)=C2C(=O)NCc1cccc(Cl)c1 -45.8%
Cc1ccc(C)c(N2CCN(C(=O)C3CCN(C(=O)c4cc5sccc5n4C)CC3)CC2)c1 15.5%
Cc1ccccc1NS(=O)(=O)c1ccc2c(c1)NC(=O)CCS2 42.5%
COc1cc2c(cc1NC(=O)COc1ccc(Br)cc1C)oc1ccccc12 -19.7%
CC(C)CCNC(=O)CCC(=O)N1Cc2ccccc2Oc2ncccc21 -3.12%
CCn1c(SCC(=O)Nc2ccccc2)nc2c([nH]c3ccccc32)c1=O 25.9%
CCNC(=O)C1CCN(c2nc3ccccc3nc2C(F)(F)F)CC1 -9.46%
O=C(CSc1nc2c([nH]c3ccccc32)c(=O)n1-c1ccccc1)NCc1ccc(F)cc1 -69.4%
CCc1ccc2occ(CC(=O)Nc3nnc(C)s3)c2c1 -9.28%
CCc1ccccc1NC(=O)CC(C)S(=O)(=O)c1ccc2c(c1)NC(=O)CO2 (stereo not given) 27.1%
CC(=O)c1nn(-c2ccc(OC(F)(F)F)cc2)nc1Nc1ccc(Cl)cc1 3.55%
CCOc1ccc(NC(=O)Cn2cc(S(=O)(=O)c3ccc(C)cc3)c(=O)c3cc(F)ccc32)cc1 -15.3%
O=C(CN1C(=O)C2(SCC(=O)N2c2ccccc2)c2ccccc21)Nc1ccccc1C(F)(F)F (stereo not given) -12.4%
COc1ccc(S(=O)(=O)N2CCC(C(=O)NC(C)c3ccccc3)CC2)cc1 (stereo not given) 23.9%
COc1ccc(C(=O)c2cnc3ccc(C)cc3c2S(=O)(=O)c2ccccc2)cc1 -36.8%
Cc1ccc(CN2C(=O)C(O)(CC(=O)c3ccc(C)cc3)c3ccccc32)cc1 (stereo not given) -71.8%
O=C(Nc1ccc(Br)cc1)c1cc2nc(-c3ccccc3)cc(-c3ccccc3)n2n1 10.3%
CCOc1ccc(-c2nnc(SCC(=O)NCc3ccc(Cl)cc3)o2)cc1 -5.25%
Cc1ccc(NC(=O)c2cc(S(=O)(=O)NC3CCCCCC3)ccc2F)cc1F -15.6%
COc1ccc2[nH]cc(CCN=C(NC(=O)c3cccc(Cl)c3)Nc3nc(C)cc(C)n3)c2c1 -5.21%
COc1ccc(NC(=O)Cn2c(=O)oc3cc(Cl)ccc32)c(OC)c1 -3.04%
Cn1c(=O)oc2cc(S(=O)(=O)N3CCCC(C(=O)NCc4ccccc4Cl)C3)ccc21 (stereo not given) 13.5%
Cc1cc(C)c2c(n1)SCC(=O)N2CC(=O)Nc1ccccc1C -13.2%
CNC(=O)C1CCC(Cn2c(=O)c3sccc3n(CC(=O)NCc3ccc(C)cc3)c2=O)CC1 (stereo not given) -11.4%
CCc1ccc(NC(=O)CSc2nc(C)c(C(=O)Nc3ccc(Cl)cc3)c(-c3ccc(OC)cc3)c2C#N)cc1 0.691%
Cc1ccc(C)c(NC(=O)CCCn2c(C)c3cnn(-c4ccccc4)c(=O)c3c2C)c1 -29.2%
O=C(CSc1nc2c([nH]c3ccccc32)c(=O)n1-c1ccc(F)cc1)NCC1CCCO1 (stereo not given) -44.5%
Cc1ccc(C2C(=O)N(C3CCCCCC3)CC(=O)N2C(C)C)cc1 (stereo not given) -20.1%
Cc1ccccc1C(=O)Nc1sc2c(c1C(=O)O)CCC(C(C)(C)C)C2 (stereo not given) -0.511%
O=C(CSc1nc2c([nH]c3ccccc32)c(=O)n1-c1ccccc1)N1CCCc2ccccc21 -14.1%
CCCCc1nn2c(=O)cc(CN(CC)c3ccccc3)nc2s1 13.7%
COc1ccc(NC(=O)Cn2nc3c(cc2=O)CCCC3)cc1Cl 2.58%
COc1cccc(C(=O)c2cn(CC(=O)Nc3cc(Cl)c(OC)cc3OC)c3nc(C)ccc3c2=O)c1 -3.75%
Cc1cccc(NC(=O)c2cc(CN3CCOCC3)on2)c1C -1.5%
Cc1cccc(S(=O)(=O)c2cn(C)c3cc(N4CCCCCC4)c(F)cc3c2=O)c1 2.79%
O=C(CSc1ccccc1)N1CCc2c([nH]c3ccccc23)C1c1ccc(Cl)cc1 (stereo not given) -33.7%
Cc1ccc(NC(=O)NCCOCCn2c(=O)oc3ccccc32)c(C)c1 -12.7%
CC(C)c1ccc(Cc2cn3cc(-c4cc5ccccc5oc4=O)nc3s2)cc1 4.26%
COc1cccc(-n2c(SCC(=O)Nc3cccc(C)c3)nc3c([nH]c4ccccc43)c2=O)c1 -6.57%
O=C(NCc1ccc(Cl)cc1)c1cc2ccc3cccnc3c2[nH]1 0.618%
COc1ccccc1N1CCN(S(=O)(=O)c2ccc(-c3ccno3)cc2OC)CC1 -6.94%
CC1=C(c2ccc(F)cc2)S(=O)(=O)N=C1N1CCC(C(=O)NCCc2ccccc2)CC1 -1.67%
Cc1nc(N2CCCC2)ncc1C(=O)NCc1ccc(Cl)cc1 26.4%
COc1ccc(OC)c(C2=NS(=O)(=O)N(C)C(C(=O)Nc3ccc(C(C)=O)cc3)=C2)c1 -11.8%
Cc1ccc(C)c(NC(=O)C2CCN(c3ncnc4c3nc3n4CCCCC3)CC2)c1 -15%
COc1cc(CN(C(=O)COc2ccc(Cl)cc2)c2ccccn2)cc(OC)c1OC 9.59%
CC(C)(C)c1ccc(C(=O)NNc2ncnc3c2cnn3-c2ccc(Cl)cc2)cc1 25.7%
Cc1cccc(C)c1NC(=O)NCCCN1CCN(c2ccccc2)CC1 -5.16%
CCCCN1C(=O)CN(C2CCCCCC2)C(=O)C1c1ccc(OCC)c(OC)c1 (stereo not given) -13.6%
COCCN(Cc1ccco1)C(=O)Cn1ncc2c([nH]c3ccccc32)c1=O 26.4%
Cc1cc2c(cc1S(=O)(=O)CCC(=O)N(C)C1CCCCC1)OCC(=O)N2 4.65%
COc1cccc(NC(=O)CCc2nc(-c3ccc(C(C)(C)C)cc3)no2)c1 5.49%
Cc1ccc(-c2nnn3c2nc(NCCc2ccccc2)c2ccccc23)cc1 9.04%
CN(c1ncnc2c1c(-c1ccccc1)cn2-c1cccc(Cl)c1)C1CCCCC1 -34.7%
Cc1cccc(-n2c(=O)c3c(c4cc(C)ccc4n3C)n(C)c2=O)c1 -0.0798%
Cc1ccc(-c2nnc(Nc3cccc(Br)c3)c3ccccc23)cc1S(=O)(=O)N1CCCCC1 -3.16%
CCc1ccc(CN(Cc2ccco2)C(=O)COc2ccccc2Cl)cc1 -15.6%
Cc1c(Cl)cccc1NC(=O)N1CCC(CN2CCOCC2)CC1 -3.32%
OCc1ccc(Cl)cc1Cl -72%
Cc1ccc(C)c(C(=O)CSc2nc(-c3ccccc3)nc3c2CCCC3)c1 11.7%
O=C(c1ccc([N+](=O)[O-])cc1)N(Cc1ccco1)c1ccccn1 -1.31%
CC(=O)OCc1cnc(C)c2oc(=O)c(C(=O)Nc3cc(F)ccc3C)cc12 2.89%
CCOc1ccccc1NC(=O)C1CCCN(c2ncnc3onc(-c4ccc(F)cc4)c23)C1 (stereo not given) -12%
CC(C)C(=O)Nc1nnc(S(=O)(=O)N(C)Cc2ccc(F)cc2)s1 -9.2%
COc1ccc(NC(=O)C2CCN(S(=O)(=O)c3cn(C)cn3)CC2)cc1Cl -15.8%
Cc1ccc(NC(=O)CSc2nnc(COc3ccc(Cl)cc3)o2)cc1 -9.97%
COc1ccc(C2C(C(=O)Nc3ccc(C)cc3C)=C(C)Nc3nc(SC)nn32)cc1OC (stereo not given) -1.97%
NC(=O)CN1C(=O)C2(SCC(=O)N2c2cccc(F)c2)c2ccccc21 (stereo not given) -10.4%
CCCCn1c(=O)c2oc3ccccc3c2n(Cc2ccc(OC)cc2)c1=O -5.54%
Cc1cc(C)cc(NC(=O)c2cn3c4c(ccc(Cl)c4c2=O)OC(C)C3)c1 (stereo not given) -6.83%
